# From PubChem BioAssay AID624418 (National Center for Advancing Translational Sciences (NCATS), 2012)
# Screen size: about 410,000 compounds; about 530 (0.13%) were called active. This list was built around the results that the source calls inconclusive (neither active nor inactive); the mix of calls is not that of the screen. Calls come from the whole dose curve; as a rule, active = well fitted inhibition curve with a large enough effect; inconclusive = small, poorly fitted or top-dose-only effect, or another doubt; inactive = no such curve, though single readings can be large or run the other way. Potencies of inconclusive entries are doubtful fits and often do not repeat.
# Assay: qHTS of GLP-1 Receptor Inverse Agonists: Cytotox Screen
# Conditions: HEK293 cAMP-luciferase reporter cells, luminescence, 24 h; activity change, negative = inhibition: at 38.3 µM (top of the series) unless noted
# Outline: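 Here, cytotoxicity is scored as loss of luminescence. The MLSMR collection was tested on cells seeded in medium containing 10% Nu serum, with a 24 hr compound exposure preceded by 12 hours of culture.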
# % is set by controls: 0 for no effect and ±100 for the full control effect; potency is the fitted concentration of half-maximal effect.
SMILES,Potency,"activity change, negative = inhibition"
CCNc1nc(NCC)nc(N/N=C(\C)c2ccc(OC)cc2)n1,"inconclusive: 10 µM [inhibitor, single point]",–
Cn1c(=O)oc2cc(S(=O)(=O)NCc3cccnc3)ccc21,"inconclusive: 3.16 µM [inhibitor, partial curve, poor fit]",–
CC1=CC(C)(C)N(S(=O)(=O)c2ccc(F)cc2)c2ccc(C)cc21,"inconclusive: 10 µM [inhibitor, partial curve]",–
CC(C)(C)c1ccc(CN2C3=NCCCN3c3ccccc32)cc1,"inconclusive: 12.6 µM [inhibitor, single point]",–
CC(C)c1ccc(C2C3=C(CC(C)(C)CC3=O)NC3=C2C(=O)c2ccccc23)cc1 (stereo unspecified),"inconclusive: 12.6 µM [inhibitor, partial curve, poor fit]",–
CC(C)c1ccc(NC(=O)Cn2c(=O)oc3cc(S(=O)(=O)N4CCCC4)ccc32)cc1,"inconclusive: 2.51 µM [inhibitor, partial curve, poor fit]",–
COc1ccc2cc1Oc1ccc(cc1)C[C@H]1c3cc(c(OC)cc3CCN1C)Oc1c(O)c(OC)cc3c1[C@H](C2)N(C)CC3,"inconclusive: 11.2 µM [inhibitor, partial curve, poor fit]",–
S=C=Nc1cccc(C2(N3CCCCC3)CCCCC2)c1,"inconclusive: 31.6 µM [inhibitor, single point]",–
COc1ccc(NC(=O)CN2C(=O)CSC2=O)cc1,"inconclusive: 28.2 µM [inhibitor, single point]",–
Cc1ccc(N2C(=O)NC(=O)/C(=C\C=C\c3ccco3)C2=O)cc1,"inconclusive: 12.6 µM [inhibitor, partial curve]",–
NC(c1csc(NC(=O)Nc2cccc(Cl)c2)n1)C1CCCCC1 (stereo unspecified),"inconclusive: 28.2 µM [inhibitor, single point]",–
COc1cccc(O)c1CN1CCCC(C(=O)c2sccc2C)C1 (stereo unspecified),"inconclusive: 22.4 µM [inhibitor, single point]",–
CCOC(=O)c1cc(-c2ccc(F)cc2)n(CC(=O)Nc2nccs2)c1C,"inconclusive: 22.4 µM [inhibitor, single point]",–
COc1ccc(NCc2nc3ccccc3n2CCOc2ccccc2)cc1,"inconclusive: 10 µM [inhibitor, single point]",–
O=C(COc1ccc(S(=O)(=O)N2CCOCC2)cc1)N1CCN(Cc2ccc3c(c2)OCO3)CC1,inactive,–
COc1cccc(OP(=O)(Nc2ccccc2)Oc2cccc(OC)c2)c1,"inconclusive: 31.6 µM [inhibitor, single point]",–
O=C(c1ccco1)c1cn(Cc2ccc(Cl)cc2)c2ccccc12,"inconclusive: 8.91 µM [inhibitor, partial curve, poor fit]",–
CCCOP(=O)(c1ccccc1)c1ccccc1,"inconclusive: 28.2 µM [inhibitor, single point]",–
O=C(c1[nH]c(C(F)(F)F)nc1-c1ccccc1)N1CCc2c([nH]c3ccccc23)C1,"inconclusive: 10 µM [inhibitor, partial curve, poor fit]",–
O=c1[nH]c2ccccc2n1C1CCN(C(CCc2ccccc2)c2nnnn2Cc2ccccc2)CC1 (stereo unspecified),"inconclusive: 8.91 µM [inhibitor, partial curve, poor fit]",–
Cc1ccc(NC(=S)NCc2ccc3c(c2)OCO3)cc1,"inconclusive: 12.6 µM [inhibitor, single point]",–

SMILES,Potency,"activity change, negative = inhibition"
COc1ccc2c(c1)-c1c(ssc1=S)C(C)(C)N2S(=O)(=O)c1ccc(C)cc1,"inconclusive: 5.62 µM [inhibitor, full curve, poor fit]",–
CC(=O)OC1C2(CC3N4C(=O)C5(CO)SSC4(CC31O)C(=O)N5C)OC(C)C(C)(C)C2=O (stereo unspecified),"inconclusive: 2 µM [inhibitor, full curve, poor fit]",–
COc1cccc(-c2nc3c(C#N)c[nH]n3c2NC2CCCCC2)c1OC,"inconclusive: 11.2 µM [inhibitor, single point]",–
COc1ccc(C2c3[nH]c4ccccc4c3CCN2C(=O)c2cc3ncccn3n2)c(F)c1 (stereo unspecified),"inconclusive: 12.6 µM [inhibitor, single point]",–
Cc1ccccc1NC(=S)N1CCN(c2ccccc2C)CC1,"inconclusive: 31.6 µM [inhibitor, single point]",–
C/C(CC(=O)Nc1ccc(Cl)cc1C(F)(F)F)=N\NC(N)=S,"inconclusive: 20 µM [inhibitor, single point]",–
Cc1c(C(=O)OC/C(O)=C(\C#N)c2nc3ccccc3[nH]2)oc2ccccc12,"inconclusive: 11.2 µM [inhibitor, single point]",–
Cc1cccc(-n2c(-c3cccs3)nc3ccccc3c2=O)c1,–,inactive: 3.83% [at 1.53 µM]
NC(=O)c1c(Br)n(C2OC(CO)C(O)C2O)c2ncnc(N)c12 (stereo unspecified),"inconclusive: 7.08 µM [inhibitor, partial curve, poor fit]",–
CCc1ccc2nc(N(CCCN(C)C)C(=O)c3ccc4c(c3)OCCO4)sc2c1,"inconclusive: 12.6 µM [inhibitor, single point]",–
COc1cccc(OC)c1C(=O)NC(=S)N1CCN(c2ccc(C(F)(F)F)cc2[N+](=O)[O-])CC1,"inconclusive: 12.6 µM [inhibitor, partial curve, poor fit]",–
CCCOC(=O)c1ccc(-[n+]2c(-c3ccccc3)cc(-c3ccccc3)cc2-c2ccccc2)cc1,"inconclusive: 11.2 µM [inhibitor, partial curve]",–
COc1ccccc1CNCC(O)Cn1c2ccccc2c2ccccc21 (stereo unspecified),"inconclusive: 28.2 µM [inhibitor, single point]",–
CC12CCC(O)CC1CCC1C2CCC2(C)C(C3=CC(=O)OC3)CCC12O (stereo unspecified),"inconclusive: 0.316 µM [inhibitor, full curve, poor fit]",–
COc1ccc(NC(=O)c2c(C)nn(Cc3ccccc3Cl)c2Cl)cc1Cl,inactive,–
CC1=C(C)/C(=N\OS(=O)(=O)c2ccccc2)C=CC1=O,"inconclusive: 7.08 µM [inhibitor, partial curve, poor fit]",–
COc1ccc(C(=O)Oc2cccc3cccnc23)cc1S(=O)(=O)N1CCOCC1,"inconclusive: 3.16 µM [inhibitor, full curve, poor fit]",–
O=C(CCl)N1CCN(C(=O)C2COc3ccccc3O2)CC1 (stereo unspecified),"inconclusive: 28.2 µM [inhibitor, single point]",–
CC[n+]1c(/C=C/N(C)c2ccccc2)sc2ccc(Cl)cc21,"inconclusive: 6.31 µM [inhibitor, partial curve, poor fit]",–
CC1OC(C[N+](C)(C)C)CC1O (stereo unspecified),inactive,–
CN1CCc2cc(O)cc3c2[C@H]1Cc1ccc(O)c(O)c1-3,inactive,–

SMILES,Potency,"activity change, negative = inhibition"
CCn1c(=O)c2cc(C(=O)NCCN(C)C)sc2c2ccccc21,"inconclusive: 22.4 µM [inhibitor, partial curve, poor fit]",–
O=C(O)c1cccc(N=Nc2c(O)[nH]c(=O)[nH]c2=O)c1,"inconclusive: 14.1 µM [inhibitor, partial curve, poor fit]",–
Cc1c(CCCN)c2ccccc2n1Cc1ccccc1,"inconclusive: 22.4 µM [inhibitor, single point]",–
CCN1CCC(O)(/C=C/c2ccc(C)cc2)C(C(=O)/C=C/c2ccc(C)cc2)C1 (stereo unspecified),"inconclusive: 28.2 µM [inhibitor, single point]",–
Cc1ccsc1C(=O)C1CCCN(Cc2ccc(-n3cccn3)cc2)C1 (stereo unspecified),inactive,–
COc1c(C)cc(C(=O)C2CCCN(Cc3cccc(C)n3)C2)cc1C (stereo unspecified),inactive,–
CCOC(=O)N1CCN(Cc2nc3cc(NC(=O)c4cccc(C)c4)ccc3n2C(C)C)CC1,"inconclusive: 1 µM [inhibitor, full curve, poor fit]",–
COc1ccc(-c2sc3ccccc3c2-c2ccc(OCCN(C)C)cc2)cc1,"inconclusive: 28.2 µM [inhibitor, single point]",–
O=C(COc1ccc(Cl)cc1)N(c1ccc(Cl)cc1)C1CN2CCC1CC2 (stereo unspecified),"inconclusive: 28.2 µM [inhibitor, single point]",–
CN(C)CC(C(=O)Cc1ccccc1)c1ccccc1 (stereo unspecified),"inconclusive: 5.01 µM [inhibitor, partial curve]",–
CN(C)CCSCc1nnc2n1-c1ccc(Cl)cc1C(c1ccccc1Cl)=NC2,"inconclusive: 28.2 µM [inhibitor, single point]",–
C=CCOc1ccc(/C=N\NC(N)=S)cc1,"inconclusive: 28.2 µM [inhibitor, single point]",–
C=CCn1cccc(/C=C/C(=O)c2ccc(C(C)(C)C)cc2)c1=S,"inconclusive: 28.2 µM [inhibitor, single point]",–
Cc1ccccc1NC(=NCCCN1CC1)Nc1ccccc1C,"inconclusive: 3.98 µM [inhibitor, partial curve, poor fit]",–
Cc1cc(NC(=O)CSc2nnc(-c3ccccc3)c(-c3ccccc3)n2)no1,"inconclusive: 20 µM [inhibitor, single point]",–
CN1CCN(c2ccc(Nc3ccnc4cc(Cl)ccc34)cc2)CC1,active: 3.55 µM,–
c1ccc(P(c2ccccn2)c2ccccn2)cc1,"inconclusive: 0.501 µM [inhibitor, full curve, poor fit]",–
Cc1nc(C(F)(F)F)c(C(=O)N/N=C(\N)c2ccccn2)s1,"inconclusive: 11.2 µM [inhibitor, single point]",–
COc1cc(/C=C2\C[C@H]3[C@@H]4CC=C5C[C@@H](N6CCCC6)CC[C@]5(C)[C@H]4CC[C@]3(C)[C@H]2O)cc(OC)c1OC,"inconclusive: 11.2 µM [inhibitor, single point]",–
